In patent publication US9745340B2, “Method for the separation of proteins containing an albumin-binding” (AFFIBODY AB, priority 2012, dated 2017):

Legend:
[1] = tested on: PEP08515; assay: Column study II: spin columns, Z variant-coupled resins, bacterial extract; format: binding; details: 0.1 M sodium citrate pH 3.0 then 0.5 M HAc pH 2.5
Method: A second column study was performed to further test binding, wash and elution properties of four ABD binding Z variant-coupled resins from column study I. The ligands of these resins were His6-(Z06608)2-Cys, His6-(Z06638)2-Cys, His6-(Z06677)2-Cys and His6-(Z06650)2-Cys. An additional column packed with HSA Sepharose (human serum albumin coupled, according to the instructions by the manufacturer, via free amines to CNBr-activated Sepharose 4 Fast Flow, GE Healthcare, cat. no. 17-0981) was included as a reference. A clarified bacterial extract, prepared from an E. coli pellet by sonication and centrifugation, was used as sample in this experiment. 0.17 ml of the bacterial extract, containing approximately 0.5 mg of PEP08515 (comprising the albumin binding domain PP013 (SEQ ID NO:160) fused at its N-terminus to a PDGFR-β (Platelet Derived Growth Factor Receptor beta) binding variant of protein Z) was transferred to spin columns packed with each respective ABD binding Z variant-coupled resin or HSA Sepharose. Flow-through was collected by centrifugation and reapplied twice to the columns. Different solutions, specified in Table 2, were added to remove bacterial host proteins and to subsequently elute bound PEP08515 molecules. Wash and elution fractions were collected by centrifugation and analyzed in a spectrophotometer by measuring the absorbance at 280 nm, and by SDS-PAGE.

[2] = Melting point (Tm) by circular dichroism, variable temperature measurement; format: physicochemical; details: 0.5 mg/ml in PBS, CD 220 nm, 20-90 °C
Method: Circular dichroism (CD) analysis was carried out to determine the melting point (Tm) of His6-(Z06677)2-Cys. The purified sample was diluted to 0.5 mg/ml in PBS. A variable temperature measurement (VTM) was performed, in which the absorbance at 220 nm was monitored during heating of the sample from 20° C. to 90° C., with a temperature slope of 5° C./min. Tm was determined from the midpoint of the transition in the CD signal vs. temperature plot. The CD measurement was performed on a Jasco J-810 spectropolarimeter (Jasco Scandinavia AB) using a cell with an optical path length of 1 mm.

[3] = tested on: PEP08519; assay: Chromatography study of elution pH, linear pH gradient; format: binding; details: linear gradient pH 5.5 to pH 2.3, 0.1 M sodium citrate, 0.9% NaCl
Method: His6-(Z06677)2-Cys was immobilized on activated EAH-Sepharose 4B (GE Healthcare, cat. no. 17-0569-01). Activation and immobilization was carried out according to the manufacturer's instructions, and the degree of coupling was determined as described in Example 3. Activated EAH Sepharose contains an iodoacetyl group that enables site-directed coupling via the C-terminal cysteine of the affinity ligand. 0.43 ml of the resin was packed in a Tricorn 5/50 column (GE Healthcare). As a reference, 0.47 ml HSA Sepharose (see Example 3) was packed in the same kind of column.
The elution experiment was performed using an ÄKTAexplorer 10 chromatography system (GE Healthcare). The two columns were attached to the system and equilibrated with PBS. 2 ml of a sample containing 1 mg PEP08519 (comprising the albumin binding domain PP013 (SEQ ID NO:160) fused at its N-terminus to a Taq polymerase binding variant of protein Z) was loaded on each column followed by wash with PBS and 0.1 M sodium citrate, 0.9% NaCl, pH 5.5. Bound protein was eluted by a linear pH gradient ranging from pH 5.5 to pH 2.3 (using 0.1 M sodium citrate, 0.9% NaCl, pH 5.5, and 0.1 M sodium citrate, 0.9% NaCl, pH 2.3) over 16 column volumes (CV). The pH was monitored by the built-in pH meter of the ÄKTAexplorer system.

[4] = tested on: PEP08519; assay: Dynamic binding capacity at 10% breakthrough; details: for Original dynamic binding capacity: before alkali
Method: In this experiment, the dynamic binding capacity and resistance to alkali was tested for the His6-(Z06677)2-Cys resin and an HSA Sepharose resin packed in the Tricorn 5/50 columns used in the chromatography study described in the previous section.
The experiment was performed using an ÄKTAexplorer 10 chromatography system. The two columns were attached to the system and equilibrated with PBS. For the capacity study, a sample containing 0.25 mg/ml of PEP08519 in PBS was loaded on each column at a flow-rate of 0.2 ml/min (corresponding to a residence time of 2.4 min) until the absorbance at 280 nm of the solution emerging from the columns reached 10% of the absorbance of the original sample (i.e. 10% breakthrough). The dead volume (i.e. tubing and column volume, measured by running a sample through a column comprising no affinity ligand) was subtracted from the sample volume. Bound protein was eluted with 0.1 M sodium citrate, 0.9 NaCl, pH 2.3. The columns were then re-equilibrated with PBS.
(§1) The four His6-(Z06677)2-Cys-coupled resins were packed in Tricorn 5/50 columns. The dynamic binding capacity was tested, after which the resins were subjected to 0.5 M NaOH for 2 h, followed by a second dynamic binding capacity test. The capacity tests and alkali incubations were carried out as described in Example 4.

[5] = tested on: PEP08519; assay: Alkali resistance: dynamic binding capacity after NaOH incubation; format: physicochemical; details: for Dynamic binding capacity after alkali incubation: 0.5 M NaOH for 2 h
Method: After the capacity runs, the columns were subjected to alkali treatment by applying 5 CV of 0.2 M NaOH at a flow-rate of 1 ml/min, followed by an incubation period without flow. The total incubation time in alkali was 25 min. Neutralization of the columns was performed by washing with 5 CV of PBS at 1 ml/min, followed by a new capacity measurement as described above.
Two more alkali treatments followed by capacity measurements were carried out as above, but with the NaOH concentration increased to 0.5 M and, in the last alkali treatment, the incubation time was extended to 2 h.
as §1

[6] = CNBr-activated Sepharose 4 Fast Flow
[7] = NHS-activated Sepharose 4 Fast Flow

B1: His6-(Z06677)2-Cys: dimeric Z06677 with N-terminal His6 tag and C-terminal Cys, MGSSHHHHHHLQ-[Z06677][Z06677]-VDC (protein)
chain: MGSSHHHHHHLQVDAKYAKELKVAFKEINTLPNLTHQQRIAFIIKLDDDPSQSSELLAEAKKLNDAQAPKVDAKYAKELKVAFKEINTLPNLTHQQRIAFIIKLDDDPSQSSELLAEAKKLNDAQAPKVDC
For B1, which “elution of bound protein in column study II” value [1] is on record?
Its value is “released a majority of its bound protein at the higher pH range of elution”.

What about the “melting point (Tm)” value [2] of the same molecule?
The value was 54 °C.

What about the “pH at peak maximum for the eluted peak” value [3] of the same molecule?
The value was 3.3.

And the “Original dynamic binding capacity” value ([4]; Activated EAH Sepharose)?
The value was 1.44 mol sample/mol affinity ligand.

What about the “Original dynamic binding capacity” value [4, 6] of the same molecule?
Its value is 0.92 mol sample/mol affinity ligand.

What about the dynamic binding capacity ([4]; Example 4, 10% breakthrough, Z ligand on EAH Sepharose, HSA on CNBr-activated Sepharose) of the same molecule?
The dynamic binding capacity was 3.0 mg per ml resin.

And the “Original dynamic binding capacity” value [4, 7]?
The value was 0.41 mol sample/mol affinity ligand.

What about the “Original dynamic binding capacity” value ([4]; SulfoLink Coupling Resin) of the same molecule?
Its value is 1.44 mol sample/mol affinity ligand.

What about the “Dynamic binding capacity after alkali incubation” value ([5]; Activated EAH Sepharose) of the same molecule?
Its value is 1.44 mol sample/mol affinity ligand.

What about the “Dynamic binding capacity after alkali incubation” value [5, 6] of the same molecule?
Its value is 0.81 mol sample/mol affinity ligand.

And the “dynamic binding capacity after alkali incubations” value ([5]; EAH Sepharose, 0.2 M NaOH 25 min, 0.5 M NaOH 25 min, 0.5 M NaOH 2 h)?
Its value is “maintained its original capacity after all incubations”.

What about the “Dynamic binding capacity after alkali incubation” value [5, 7] of the same molecule?
The value was 0.38 mol sample/mol affinity ligand.

What about the “Dynamic binding capacity after alkali incubation” value ([5]; SulfoLink Coupling Resin) of the same molecule?
The value was 1.44 mol sample/mol affinity ligand.
